Experimental data as given in patent publication US10925856B2, “Methods and compositions involving bucindolol for the treatment of atrial fibrillation” (priority 2018, dated 2021).
Where two headings read alike, the source gives them in different places.

Test system: HFrEF patients with the ADRB1 Arg389Arg genotype at high risk for recurrent AF
Settings: for Hazard Ratio Unadjusted, primary endpoint (1EP) / Time to AF/AFL/ACM, Non-stratified HR (95% CI) / Time to AF/AFL/ACM, Stratified HR (95% CI) / Hazard ratio (95% C.I.): bucindolol vs metoprolol; for Events/pts (%) / Events/pts, time to any AF/AFL or ACM / Hazard ratio (95% C.I.): Entire Cohort; for Hazard ratio (CIs): Buc vs Met; for Phase 2 primary endpoint hazard ratio (HzR) / Ratio: 1-(Hazard ratio at ≤0/hazard ratio at interval) × 100: LVEF ≥0.39
[1] = CYP2D6 Extensive/Ultra Metabolizer (EM/UM)
[2] = CYP2D6 Intermediate Metabolizer (IM)
[3] = CYP2D6 Intermediate Metabolizers
[4] = LVEF <0.39, EC, All Patients/DTRIs
[5] = LVEF <0.39, EC, DTRI Q1: −15,251 to −311 days
[6] = LVEF <0.39, EC, DTRI Q2: −310 to −1 days
[7] = LVEF <0.39, EC, DTRI Q3: 0 to +44 days
[8] = LVEF <0.39, EC, DTRI Q4: +45 to +9533 days
[9] = LVEF <0.39, U.S., All Patients/DTRIs
[10] = LVEF <0.39, U.S., DTRI Q1: −15,251 to −311 days
[11] = LVEF <0.39, U.S., DTRI Q2: −310 to −1 days
[12] = LVEF <0.39, U.S., DTRI Q3: 0 to +44 days
[13] = LVEF <0.39, U.S., DTRI Q4: +45 to +9533 days
[14] = LVEF >0.39, EC, All Patients/DTRIs
[15] = LVEF >0.39, EC, DTRI Q1: −15,251 to −311 days
[16] = LVEF >0.39, EC, DTRI Q2: −310 to −1 days
[17] = LVEF >0.39, EC, DTRI Q3: 0 to +44 days
[18] = LVEF >0.39, EC, DTRI Q4: +45 to +9533 days
[19] = LVEF >0.39, U.S., All Patients/DTRIs
[20] = LVEF >0.39, U.S., DTRI Q1: −15,251 to −311 days
[21] = LVEF >0.39, U.S., DTRI Q2: −310 to −1 days
[22] = LVEF >0.39, U.S., DTRI Q3: 0 to +44 days
[23] = LVEF >0.39, U.S., DTRI Q4: +45 to +9533 days

## CC(C)(Cc1c[nH]c2ccccc12)NCC(O)COc1ccccc1C#N (centres unmarked) [bucindolol, 2-(3-(1-(1H-indol-3-yl)-2-methylpropan-2-ylamino)-2-hydroxypropoxy)benzonitrile]
[1]
  1EP Events: 61
  1EP Events (rate): (58%)
  Hazard Ratio Unadjusted, primary endpoint (1EP): 1.01
[2]
  1EP Events: 2
  1EP Events (rate): (22%)
  Hazard Ratio Unadjusted, primary endpoint (1EP): 0.24
[3]
  Hazard ratio, Phase 2 primary endpoint, bucindolol vs. metoprolol: 0.24
  Primary endpoint event rate: 22%
CYP2D6 Poor Metabolizer (PM)
  1EP Events: 8
  1EP Events (rate): (67%)
  Hazard Ratio Unadjusted, primary endpoint (1EP): 2.19
CYP2D6 Poor Metabolizers, adjusted
  Hazard ratio, Phase 2 primary endpoint, bucindolol vs. metoprolol: 2.57
Canada
  Failed ECV at day 0: 21%
Canada (N = 59)
  Time to AF/AFL/ACM, Non-stratified HR (95% CI): 1.42
  Time to AF/AFL/ACM, Stratified HR (95% CI): 1.52
Canada (n = 59), covariate adjusted
  hazard ratio, Phase 2 (time to any AF/AFL or ACM): 1.52
Canada, covariate adjusted
  Hazard ratio, time to first AF/AFL/ACM, bucindolol vs. metoprolol: 1.52
Canada, number of patients
  Patients who failed ECV on day 0: 4
Canada, unadjusted
  Hazard ratio, time to first AF/AFL/ACM, bucindolol vs. metoprolol: 1.42
DxT10/DTRI-1 criteria
  Hazard ratio, time to first AF/AFL/ACM, bucindolol vs. metoprolol: 0.51
DxT12/DTRI-2 cohort N=196 (HF and AF <12 years, AF not preceding HF by >2 years), ECG-based
  Hazard ratio, time to first AF/AFL/ACM, bucindolol vs. metoprolol: 0.54
DxT12/DTRI-2 cohort, HFlrEF (LVEF <0.40) N=105
  Hazard ratio, time to first AF/AFL/ACM, bucindolol vs. metoprolol: 0.69
DxT12/DTRI-2 cohort, HFmrEF (LVEF ≥0.40 and <0.50) N=91
  Hazard ratio, time to first AF/AFL/ACM, bucindolol vs. metoprolol: 0.42
DxT12/DTRI-2 population, FIG. 30
  Effectiveness by LVEF group: higher in patient groups having higher LVEF
DxT12: excluding AF or HF >12 years, N=230
  Hazard ratio, time to first AF/AFL/ACM, bucindolol vs. metoprolol: 0.68
DxT15/DTRI-3 criteria
  Hazard ratio, time to first AF/AFL/ACM, bucindolol vs. metoprolol: 0.63
LVEF 0.30-0.39 (mean 0.337)
  Events/pts (%): (58%)
  Events/pts, time to any AF/AFL or ACM: 21/36
LVEF 0.30-0.39
  Hazard ratio (95% C.I.): 1.13
LVEF 0.40-0.49 (mean 0.447)
  Events/pts (%): (53%)
  Events/pts, time to any AF/AFL or ACM: 33/62
LVEF 0.40-0.49
  Hazard ratio (95% C.I.): 0.84
LVEF <0.30 (mean 0.228)
  Events/pts (%): (52%)
  Events/pts, time to any AF/AFL or ACM: 17/33
LVEF <0.30
  Hazard ratio (95% C.I.): 0.95
NYHA Class I
  Events/pts (%): (38%)
  Events/pts, time to any AF/AFL or ACM: 15/40
  Hazard ratio (95% C.I.): 0.72
NYHA Class II
  Events/pts (%): (64%)
  Events/pts, time to any AF/AFL or ACM: 51/80
  Hazard ratio (95% C.I.): 1.12
NYHA Class III
  Events/pts (%): (50%)
  Events/pts, time to any AF/AFL or ACM: 7/14
  Hazard ratio (95% C.I.): 0.83
Entire cohort (n = 267), covariate adjusted
  hazard ratio, Phase 2 (time to any AF/AFL or ACM): 1.01
Europe (N = 81)
  Time to AF/AFL/ACM, Non-stratified HR (95% CI): 1.06
  Time to AF/AFL/ACM, Stratified HR (95% CI): 1.01
Europe (n = 81), covariate adjusted
  hazard ratio, Phase 2 (time to any AF/AFL or ACM): 1.01
Europe excluding Hungary
  Failed ECV at day 0: 0%
  Hazard ratio, time to first AF/AFL/ACM, bucindolol vs. metoprolol: 0.50
Europe, covariate adjusted
  Hazard ratio, time to first AF/AFL/ACM, bucindolol vs. metoprolol: 1.01
Hungary
  Failed ECV at day 0: 33%
Hungary (FIG. 5C, covariate adjusted)
  Hazard ratio, time to first AF/AFL/ACM, bucindolol vs. metoprolol: 2.90
Hungary (N = 33)
  Time to AF/AFL/ACM, Non-stratified HR (95% CI): 3.57
  Time to AF/AFL/ACM, Stratified HR (95% CI): 2.90
Hungary and Canada
  Hazard ratio, primary endpoint, bucindolol vs. metoprolol: > 1.5
Hungary, unadjusted
  Hazard ratio, time to first AF/AFL/ACM, bucindolol vs. metoprolol: 3.57
[4]
  event rate: (55%)
  event rate, events/patients: 38/69
  Hazard ratio (CIs): 1.02
[5]
  event rate: (69%)
  event rate, events/patients: 11/16
  Hazard ratio (CIs): 0.83
[6]
  event rate: (43%)
  event rate, events/patients: 6/14
  Hazard ratio (CIs): 0.51
[7]
  event rate: (53%)
  event rate, events/patients: 8/15
  Hazard ratio (CIs): 1.70
[8]
  event rate: (54%)
  event rate, events/patients: 13/24
  Hazard ratio (CIs): 0.92
[9]
  event rate: (49%)
  event rate, events/patients: 17/35
  Hazard ratio (CIs): 0.80
[10]
  event rate: (83%)
  event rate, events/patients: 5/6
  Hazard ratio (CIs): 1.18
[11]
  event rate: (33%)
  event rate, events/patients: 2/6
  Hazard ratio (CIs): 0.43
[12]
  event rate: (43%)
  event rate, events/patients: 3/7
  Hazard ratio (CIs): 1.62
[13]
  event rate: (44%)
  event rate, events/patients: 7/16
  Hazard ratio (CIs): 0.57
[14]
  event rate: (54%)
  event rate, events/patients: 35/65
  Hazard ratio (CIs): 0.89
[15]
  event rate: (58%)
  event rate, events/patients: 11/19
  Hazard ratio (CIs): 1.52
[16]
  event rate: (56%)
  event rate, events/patients: 10/18
  Hazard ratio (CIs): 0.63
[17]
  event rate: (58%)
  event rate, events/patients: 11/19
  Hazard ratio (CIs): 0.83
[18]
  event rate: (33%)
  event rate, events/patients: 3/9
  Hazard ratio (CIs): 0.48
[19]
  event rate: (64%)
  event rate, events/patients: 16/25
  Hazard ratio (CIs): 0.57
[20]
  event rate: (80%)
  event rate, events/patients: 4/5
  Hazard ratio (CIs): 1.04
[21]
  event rate: (63%)
  event rate, events/patients: 5/8
  Hazard ratio (CIs): 0.54
[22]
  event rate: (67%)
  event rate, events/patients: 4/6
  Hazard ratio (CIs): 0.70
[23]
  event rate: (50%)
  event rate, events/patients: 3/6
  Hazard ratio (CIs): 0.35
DTRI lower bound ≤0, upper bound +9533 days
  Phase 2 primary endpoint hazard ratio (HzR): 0.56
DTRI lower bound ≤−30
  Ratio: 1-(Hazard ratio at ≤0/hazard ratio at interval) × 100: +3.7%
DTRI lower bound ≤−30, upper bound +9533 days
  Phase 2 primary endpoint hazard ratio (HzR): 0.54
DTRI lower bound ≤−60
  Ratio: 1-(Hazard ratio at ≤0/hazard ratio at interval) × 100: −3.4%
DTRI lower bound ≤−60, upper bound +9533 days
  Phase 2 primary endpoint hazard ratio (HzR): 0.58
DTRI lower bound ≤−90
  Ratio: 1-(Hazard ratio at ≤0/hazard ratio at interval) × 100: −13.8%
DTRI lower bound ≤−90, upper bound +9533 days
  Phase 2 primary endpoint hazard ratio (HzR): 0.65
DTRI lower bound ≤−180
  Ratio: 1-(Hazard ratio at ≤0/hazard ratio at interval) × 100: −18.8%
DTRI lower bound ≤−180, upper bound +9533 days
  Phase 2 primary endpoint hazard ratio (HzR): 0.69
DTRI lower bound ≤−365
  Ratio: 1-(Hazard ratio at ≤0/hazard ratio at interval) × 100: −8.2%
DTRI lower bound ≤−365, upper bound +9533 days
  Phase 2 primary endpoint hazard ratio (HzR): 0.61
DTRI lower bound ≤−730
  Ratio: 1-(Hazard ratio at ≤0/hazard ratio at interval) × 100: −23.4%
DTRI lower bound ≤−730, upper bound +9533 days
  Phase 2 primary endpoint hazard ratio (HzR): 0.73
Non-U.S. (N = 140)
  Time to AF/AFL/ACM, Non-stratified HR (95% CI): 1.22
  Time to AF/AFL/ACM, Stratified HR (95% CI): 1.34
Poland (N = 23)
  Time to AF/AFL/ACM, Non-stratified HR (95% CI): 0.28
  Time to AF/AFL/ACM, Stratified HR (95% CI): 0.25
